Test results as given in PubChem BioAssay AID1347073 (National Center for Advancing Translational Sciences (NCATS), 2019).
Hit rate of the full screen: of about 45,000 compounds, about 200 (0.44%) were called active. Another 7% or so got no clear call; they are omitted. The call rests on the fitted dose curve; in most records, active means well fitted activation curve with a large enough effect; inconclusive means small, poorly fitted or top-dose-only effect; inactive means no such curve, though single readings can be large or run the other way. The list shows a part of the results.

assay: qHTS of TDP-43 Inhibitors: NCGC Sytravon Library Screen; settings: yeast TDP-43 toxicity rescue, BacTiter-Glo growth, 24 h; series mostly up to 46.1 µM; growth rescue (activation): at the top concentration; further: 0% is about no effect; nearly all actives have a fitted effect of over 55% in size
Method in brief: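 TDP-43-expressing yeast, pregrown in raffinose, seeded at OD600 0.02 in galactose medium with compound for 24 hr at 30 deg C. Growth read by BacTiter-Glo luminescence, so rescue of toxicity appears as activation.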

Row | SMILES | growth rescue (activation)
1 | CN(C)CCNC(=O)/C(=C/c1ccc(-c2cccc(Cl)c2)o1)NC(=O)c1ccccc1 | inactive: -6.59%
2 | CC/C(=N\NC(=O)Nc1nonc1N)c1ccc(OC)c(OC)c1 | inactive: 7.86%
3 | CCCCc1ccc(S(=O)(=O)NNC(=S)NCc2ccco2)cc1 | inactive: 14.5%
4 | Nc1ccc(-c2nnn(Cc3ccccc3)n2)cc1 | inactive: 9.36%
5 | O=C(NCc1ccccc1)C(c1ccco1)N(C(=O)c1csnn1)C1CC1 (stereo unspecified) | inactive: 12.2%
6 | CN(CC(=O)NCc1ccccn1)S(=O)(=O)c1ccc(Br)cc1 | inactive: 8.94%
7 | Cc1ccc(NC(=O)Cn2c(=O)n(CCC(=O)NCc3ccc4c(c3)OCO4)c(=O)c3sccc32)c(C)c1 | inactive: 8.75%
8 | CCOc1ccc(S(=O)(=O)N(C)c2ccc(OCC(=O)NCc3ccc(C(=O)OC)cc3)cc2)cc1 | inactive: 17.1%
9 | Cc1nnc(SCc2cccc([N+](=O)[O-])c2)o1 | inactive: 5.43%
10 | NC(=O)c1ccc(NC(=O)Cc2csc(-c3ccccc3)n2)cc1 | inactive: 8.25%
11 | Cc1cccc(C(=O)OC2CCOC2=O)c1C (stereo unspecified) | inactive: -14%
12 | CCC1=[N+](C)c2cccc3cccc(c23)N1C | inactive: 3.57%
13 | CN(CC(=O)Nc1ccc2c(c1)OCO2)S(=O)(=O)c1ccc2c(c1)CCC(=O)N2 | inactive: 13.5%
14 | CCc1cccc(NC(=O)CCNC(=O)Cn2ccc3ccccc3c2=O)c1 | inactive: 7.31%
15 | CCn1c(SCC(=O)Nc2ccccc2F)nnc1-c1ccoc1C | inactive: 11.6%
16 | Cc1c(NC(=O)COC(=O)c2cc(-c3ccc(-c4ccccc4)cc3)nc3ccccc23)c(=O)n(-c2ccccc2)n1C | inactive: 31.3%
17 | COc1ccc(C(=O)NNC(=O)CSc2nc(C(C)C)nc3ccccc23)cc1 | inactive: -0.026%
18 | CC1CCCCN1C(=O)COC(=O)Cc1c[nH]c2ccccc12 (stereo unspecified) | inactive: -4.66%
19 | CCCCOC(=O)c1ccc(NC(=O)C(=O)NCc2cccnc2)cc1 | inactive: 0.117%
20 | CCOC(=O)C1=C(C)C2C3C(=O)N(c4ccc(C)cc4C)C(=O)C3C1(C)C1C(=O)N(c3ccc(C)cc3C)C(=O)C21 (stereo unspecified) | inactive: 3.68%
21 | CCCOc1ccc(/C=N/NC(=S)Nc2ccccc2[N+](=O)[O-])c(O)c1 | inactive: 26.6%
22 | CC(=O)Nc1ccc(NC(=O)C(C)Sc2nnc(-c3ccc4c(c3)OCO4)o2)cc1 (stereo unspecified) | inactive: 8.31%

Row | SMILES | growth rescue (activation)
23 | O=C(NC(=S)Nc1cccnc1)c1cccc(Br)c1 | inactive: 20.7%
24 | COc1ccccc1N(Cc1cc(=O)[nH]c2ccccc12)C(=O)c1ccc([N+](=O)[O-])cc1 | inactive: 4.74%
25 | O=C(CSc1ccccc1)Nc1ccc(C(=O)Nc2ccc(O)cc2)cc1 | inactive: 0.211%
26 | Cc1c(Cl)c([N+](=O)[O-])nn1CCCC(=O)Nc1cccc(O)c1 | inactive: 6.23%
27 | CCN(CC)CCNC(=O)Cn1cnc2sc(C)c(S(=O)(=O)N3CC(C)CC(C)C3)c2c1=O (stereo unspecified) | inactive: 12.2%
28 | Nc1nc2ncc(C(=O)c3cc(Cl)cc(Cl)c3O)cc2s1 | inactive: 14.7%
29 | COc1ccc(N2CC(C(=O)N/N=C/c3cc([N+](=O)[O-])ccc3O)CC2=O)cc1 (stereo unspecified) | inactive: 9.67%
30 | O=C(N/N=C/C=C/c1ccco1)c1ccncc1 | inactive: 7.58%
31 | Cc1ccc(Oc2nccc(-c3ccc(Cl)cc3)n2)cc1 | inactive: 27.4%
32 | COC(=O)C(NC(=O)C(NC(=O)C1CCC(C)CC1)C(C)C)C(C)C (stereo unspecified) | inactive: 22.7%
33 | CCCc1ncc(C(O)(c2ccccc2)c2ccccc2)n1C | inactive: 0.986%
34 | O=c1cc(-c2ccccc2)nc(SCCOc2ccccc2Cl)[nH]1 | inactive: -9.43%
35 | O=c1[nH]c(CN2CCOCC2)nc2cc(Cl)ccc12 | inactive: 8.4%
36 | Cc1ccc(S(=O)(=O)N(C)C)cc1NC(=O)C(C)OC(=O)/C=C/c1cccs1 (stereo unspecified) | inactive: 25.2%
37 | COc1ccc(Cl)cc1-c1cc(C(=O)NCc2cc(C(F)(F)F)cc(C(F)(F)F)c2)[nH]n1 | inactive: 10.1%
38 | COc1ccccc1OCc1csc(N)n1 | inactive: -12.1%
39 | CC1(C(=O)NCc2cccs2)CCN1C(=O)Cc1ccc(Cl)cc1Cl (stereo unspecified) | inactive: 6.98%
40 | Cc1ccsc1CN(C(=O)c1oc2ccc(Br)cc2c1C)C1CCS(=O)(=O)C1 (stereo unspecified) | inactive: 15.1%
41 | Cn1c(=O)c2c(nc(NCCOc3ccc(C(C)(C)C)cc3)n2C)n(C)c1=O | inactive: 4.21%
42 | O=C(CSc1nnc(NC(=O)C2CC2)s1)Nc1ccccc1 | inactive: -3.99%
43 | CCOc1cc(N2CCOCC2)c(OCC)cc1NC(=O)c1cnccn1 | inactive: 8.09%
44 | CCCCC(=O)NS(=O)(=O)c1ccc(N=NN(CC)CC)cc1 | inactive: 9.66%

Row | SMILES | growth rescue (activation)
45 | CC1(Cc2cc(Cl)ccc2C(F)(F)F)C(=O)Nc2cc(-c3ccccc3Cl)ccc21 (stereo unspecified) | inactive: 6.19%
46 | O=C(Cc1ccccc1[N+](=O)[O-])NCc1ccc2c(c1)OCO2 | inactive: 23.9%
47 | COc1ccccc1-c1cnc(C(O)c2ccc(Cl)c(F)c2)[nH]1 (stereo unspecified) | inactive: 8.18%
48 | Cc1cccc(NC(=O)CN2C(=O)N/C(=C\c3ccccc3OCc3ccc(C(=O)O)cc3)C2=O)c1 | inactive: 11.1%
49 | CC1=C/C(=N\OS(=O)(=O)c2ccccc2)C(C(C)C)=CC1=O | inactive: -92.3%
50 | C=C(C)C1CC=C(C)/C(=N/Nc2ccccc2[N+](=O)[O-])C1 (stereo unspecified) | inactive: 1.26%
51 | Cc1c(NC(=O)Nc2cccc([N+](=O)[O-])c2)c(=O)n(-c2ccccc2)n1C | inactive: 5.37%
52 | Cc1ccccc1OCCCCn1c(CO)nc2ccccc21 | inactive: 1.18%
53 | CN(Cc1ccccc1)C(=O)CC(=O)N(C)Cc1ccccc1 | inactive: 9.55%
54 | Cc1oc2cc(OCc3cnn(-c4ccccc4)c3)ccc2c(=O)c1Oc1ccccc1F | inactive: 17%
55 | CC(=O)Nc1ccc(C2=NN(c3ccccc3)C(c3ccccc3)C2)cc1 (stereo unspecified) | inactive: -1.68%
56 | Cc1nc2c(OCc3ccc(Cl)cc3)cccn2c1N(C)Cc1cccs1 | inactive: 6.21%
57 | Cc1cccc(C(=O)NCc2nnc(SCC(=O)Nc3nncs3)n2C)c1 | inactive: -16.3%
58 | CCOC(=O)N(C)c1c(CC)nc2c(OCC(=O)C(C)(C)C)cccn12 | inactive: 13.3%
59 | O=C(/C=C/c1ccccc1)NCc1ccco1 | inactive: -2.46%
60 | CC(=O)N1CCN(c2ccc(S(=O)(=O)N3CCOCC3)cc2[N+](=O)[O-])CC1 | inactive: 7.81%
61 | O=C(c1cc(COc2ccc(F)cc2Cl)on1)N1CC[C@@H]2CCCC[C@H]2C1 | inactive: 10.3%
62 | CC(C)NC(=O)c1ccc(S(=O)(=O)N(C)C)cc1 | inactive: 6.54%
63 | COc1ccc(C(=O)Nc2cccc(S(=O)(=O)N3CCCC3)c2)cc1S(=O)(=O)N1CCOCC1 | inactive: 1.57%
64 | O=[N+]([O-])c1ccc(Cl)c(CN2CCSCC2)c1 | inactive: -18.4%
65 | CCCS(=O)(=O)N1CCN(Cc2ccc([N+](=O)[O-])cc2)CC1 | inactive: 20.6%
66 | Cc1nc2cc(C(F)(F)F)ccc2n1C1CCN(CC(=O)N2CCCC2)CC1 | inactive: -2.54%
